Paper PMC6135549
These are yes or no findings as the source states them, for the method shown. For part of these data: In cells and extracts the contact can be indirect. Some entries that bind do so weakly or less than the wild type. One block for each substance: values may come before it.

Protein sequences, listed by entry. Tags and fused reporters are not part of them. Lines headed by an entry give the natural chain unless they say otherwise; changes in a name come on top. Chains listed by the source or under a name are the forms on record and can include a tag or linker. Residues count along the entry.
UniProt Q04759: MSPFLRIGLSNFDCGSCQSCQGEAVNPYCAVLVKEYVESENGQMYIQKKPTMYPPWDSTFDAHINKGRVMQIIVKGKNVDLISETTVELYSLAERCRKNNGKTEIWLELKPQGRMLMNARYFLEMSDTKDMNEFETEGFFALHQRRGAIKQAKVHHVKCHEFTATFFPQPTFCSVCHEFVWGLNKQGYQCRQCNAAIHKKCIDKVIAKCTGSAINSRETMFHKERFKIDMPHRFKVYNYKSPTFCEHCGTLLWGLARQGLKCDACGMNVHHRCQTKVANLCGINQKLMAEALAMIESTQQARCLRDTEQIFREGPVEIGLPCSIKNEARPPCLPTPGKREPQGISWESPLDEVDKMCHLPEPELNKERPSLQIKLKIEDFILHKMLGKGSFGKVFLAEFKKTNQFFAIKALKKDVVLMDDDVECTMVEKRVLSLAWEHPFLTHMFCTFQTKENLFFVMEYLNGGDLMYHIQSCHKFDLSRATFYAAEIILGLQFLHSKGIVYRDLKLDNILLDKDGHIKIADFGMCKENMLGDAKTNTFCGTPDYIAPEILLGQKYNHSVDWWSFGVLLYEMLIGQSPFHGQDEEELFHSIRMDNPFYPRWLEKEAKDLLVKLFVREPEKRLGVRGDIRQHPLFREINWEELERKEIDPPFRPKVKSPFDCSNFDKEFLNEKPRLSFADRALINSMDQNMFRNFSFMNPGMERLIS
UniProt Q8IVH8: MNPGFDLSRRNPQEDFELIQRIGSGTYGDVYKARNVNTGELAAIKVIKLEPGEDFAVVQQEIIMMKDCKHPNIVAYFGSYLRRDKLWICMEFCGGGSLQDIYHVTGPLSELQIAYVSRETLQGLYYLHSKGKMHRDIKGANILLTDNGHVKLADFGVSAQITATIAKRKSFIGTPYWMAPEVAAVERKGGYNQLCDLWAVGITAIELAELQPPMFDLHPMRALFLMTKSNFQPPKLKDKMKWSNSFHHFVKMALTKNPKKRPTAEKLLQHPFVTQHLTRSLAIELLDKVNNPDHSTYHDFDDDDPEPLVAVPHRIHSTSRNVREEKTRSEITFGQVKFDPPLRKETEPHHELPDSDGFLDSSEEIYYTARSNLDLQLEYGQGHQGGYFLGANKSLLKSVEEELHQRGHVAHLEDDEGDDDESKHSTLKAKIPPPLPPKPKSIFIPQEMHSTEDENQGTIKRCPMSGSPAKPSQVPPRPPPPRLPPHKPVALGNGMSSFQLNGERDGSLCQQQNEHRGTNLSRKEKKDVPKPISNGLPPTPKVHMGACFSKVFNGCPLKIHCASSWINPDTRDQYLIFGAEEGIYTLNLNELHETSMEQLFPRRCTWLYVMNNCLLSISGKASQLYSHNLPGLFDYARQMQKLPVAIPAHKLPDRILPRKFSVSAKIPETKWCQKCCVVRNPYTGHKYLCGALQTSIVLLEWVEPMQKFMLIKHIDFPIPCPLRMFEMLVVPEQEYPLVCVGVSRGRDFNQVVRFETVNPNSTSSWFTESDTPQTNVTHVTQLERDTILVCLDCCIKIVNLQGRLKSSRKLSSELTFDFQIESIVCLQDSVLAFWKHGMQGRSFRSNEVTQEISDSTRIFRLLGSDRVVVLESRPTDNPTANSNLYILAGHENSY
UniProt P35869, residues 11-848: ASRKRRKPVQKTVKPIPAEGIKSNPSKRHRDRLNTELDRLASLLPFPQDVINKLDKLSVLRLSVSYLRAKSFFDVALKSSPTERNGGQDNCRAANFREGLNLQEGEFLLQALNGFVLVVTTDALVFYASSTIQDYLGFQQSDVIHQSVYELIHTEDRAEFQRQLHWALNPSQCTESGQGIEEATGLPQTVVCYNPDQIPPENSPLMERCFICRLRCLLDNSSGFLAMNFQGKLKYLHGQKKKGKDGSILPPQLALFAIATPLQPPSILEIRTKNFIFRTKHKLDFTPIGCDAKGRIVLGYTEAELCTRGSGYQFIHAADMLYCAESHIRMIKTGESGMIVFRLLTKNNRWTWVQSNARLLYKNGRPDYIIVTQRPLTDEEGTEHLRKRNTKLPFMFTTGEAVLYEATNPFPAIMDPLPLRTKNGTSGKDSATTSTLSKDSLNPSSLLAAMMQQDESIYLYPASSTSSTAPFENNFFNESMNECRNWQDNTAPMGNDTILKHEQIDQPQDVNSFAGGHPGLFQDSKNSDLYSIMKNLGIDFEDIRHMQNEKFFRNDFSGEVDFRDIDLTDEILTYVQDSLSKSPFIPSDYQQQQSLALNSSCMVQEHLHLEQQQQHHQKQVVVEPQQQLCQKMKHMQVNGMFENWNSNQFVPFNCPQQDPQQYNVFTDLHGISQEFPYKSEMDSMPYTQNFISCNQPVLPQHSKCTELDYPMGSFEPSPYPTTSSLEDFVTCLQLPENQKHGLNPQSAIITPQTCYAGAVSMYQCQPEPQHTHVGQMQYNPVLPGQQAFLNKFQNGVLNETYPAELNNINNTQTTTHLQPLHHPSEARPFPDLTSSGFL
UniProt Q02111: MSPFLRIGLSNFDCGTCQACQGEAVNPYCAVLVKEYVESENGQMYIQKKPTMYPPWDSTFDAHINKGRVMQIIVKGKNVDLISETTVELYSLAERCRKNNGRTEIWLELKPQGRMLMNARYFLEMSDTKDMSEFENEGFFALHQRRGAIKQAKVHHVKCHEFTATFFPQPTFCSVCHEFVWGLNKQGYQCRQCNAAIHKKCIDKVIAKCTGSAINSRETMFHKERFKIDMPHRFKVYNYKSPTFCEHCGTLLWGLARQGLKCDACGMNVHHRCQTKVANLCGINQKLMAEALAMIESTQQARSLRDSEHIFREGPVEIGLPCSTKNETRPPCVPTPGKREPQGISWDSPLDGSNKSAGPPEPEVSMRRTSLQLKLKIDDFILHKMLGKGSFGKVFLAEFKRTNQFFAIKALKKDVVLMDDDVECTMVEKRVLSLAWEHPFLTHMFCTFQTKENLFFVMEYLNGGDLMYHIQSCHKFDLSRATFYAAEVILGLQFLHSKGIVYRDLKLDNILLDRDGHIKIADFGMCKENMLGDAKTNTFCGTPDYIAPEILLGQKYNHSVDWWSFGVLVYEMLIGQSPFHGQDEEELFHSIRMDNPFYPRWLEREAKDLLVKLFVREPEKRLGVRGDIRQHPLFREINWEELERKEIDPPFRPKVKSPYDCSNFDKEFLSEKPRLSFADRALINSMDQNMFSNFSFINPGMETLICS
Flag-tagged RORγt-S489A mutant (cells cotransfected with IKKβ) (P51450-2, form named): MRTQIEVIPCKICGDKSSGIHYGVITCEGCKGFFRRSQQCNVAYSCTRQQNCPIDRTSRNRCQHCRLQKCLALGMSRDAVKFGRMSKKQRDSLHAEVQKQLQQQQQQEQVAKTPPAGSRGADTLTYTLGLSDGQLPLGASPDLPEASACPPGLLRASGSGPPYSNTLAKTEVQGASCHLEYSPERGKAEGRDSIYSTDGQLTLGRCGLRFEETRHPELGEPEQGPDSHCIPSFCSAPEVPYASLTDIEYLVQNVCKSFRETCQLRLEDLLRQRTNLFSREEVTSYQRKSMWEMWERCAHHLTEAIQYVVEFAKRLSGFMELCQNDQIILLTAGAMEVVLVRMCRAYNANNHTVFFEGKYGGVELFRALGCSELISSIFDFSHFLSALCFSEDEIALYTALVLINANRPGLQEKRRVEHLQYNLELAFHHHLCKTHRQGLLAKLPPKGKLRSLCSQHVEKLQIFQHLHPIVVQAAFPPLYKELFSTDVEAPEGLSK
UniProt P30561, residues 10-848: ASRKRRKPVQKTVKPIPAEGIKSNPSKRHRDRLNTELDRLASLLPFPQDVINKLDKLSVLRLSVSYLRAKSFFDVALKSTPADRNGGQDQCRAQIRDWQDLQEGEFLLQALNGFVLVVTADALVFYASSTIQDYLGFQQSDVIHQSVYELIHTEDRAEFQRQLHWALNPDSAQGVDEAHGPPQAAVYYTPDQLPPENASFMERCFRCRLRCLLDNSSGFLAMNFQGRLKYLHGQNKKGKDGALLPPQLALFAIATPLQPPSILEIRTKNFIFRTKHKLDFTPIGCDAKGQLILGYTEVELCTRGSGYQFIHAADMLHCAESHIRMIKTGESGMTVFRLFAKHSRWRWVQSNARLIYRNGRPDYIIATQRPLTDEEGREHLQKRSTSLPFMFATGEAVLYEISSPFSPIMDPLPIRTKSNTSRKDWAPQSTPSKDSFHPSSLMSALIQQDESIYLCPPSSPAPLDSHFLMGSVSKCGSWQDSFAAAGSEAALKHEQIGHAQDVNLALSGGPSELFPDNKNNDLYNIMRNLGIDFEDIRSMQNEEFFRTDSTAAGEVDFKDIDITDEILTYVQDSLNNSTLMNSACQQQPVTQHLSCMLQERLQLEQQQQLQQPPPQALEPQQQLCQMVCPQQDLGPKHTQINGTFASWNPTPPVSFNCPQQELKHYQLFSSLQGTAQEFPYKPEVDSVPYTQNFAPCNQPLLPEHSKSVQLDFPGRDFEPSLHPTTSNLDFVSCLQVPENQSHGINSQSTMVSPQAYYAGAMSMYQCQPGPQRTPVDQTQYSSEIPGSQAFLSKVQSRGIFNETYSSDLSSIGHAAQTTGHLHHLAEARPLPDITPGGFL

Tests used:
PKCθ of the ALPHA assay = PKCθ of the ALPHA assay (UniProt Q04759); assay: AlphaScreen or HTRF; ALPHA technology (PerkinElmer) protein-protein interaction assay; signal when the pair is within 200 nm; EnVision 2104 reader
[1] = biological target: germinal center kinase-like kinase (GLK) of the ALPHA assay (UniProt Q8IVH8); assay: as above
Myc-tagged PKCθ = Myc-tagged PKCθ (UniProt Q04759); assay: proximity ligation; in situ PLA with probes corresponding to Myc and Flag tags in Myc-PKCθ- and Flag-AhR-overexpressing HEK293T cells
HA-tagged AhR = HA-tagged AhR (UniProt P35869); assay: co-IP; lysates of HEK293T cells transfected with HA-AhR and Flag-RORγt (WT or S489A) plus GLK-CFP, PKCθ-Myc, IKKβ-CFP, IKKα-Myc or vector
[2] = biological target: purified recombinant GST-tagged AhR (UniProt P35869); assay: pull-down; GST pull-down: purified GST-AhR on glutathione Sepharose, 3 hours, with Flag-RORγt eluted with Flag peptides from HEK293T cells cotransfected with CFP-IKKβ or vector; washed with lysis buffer (125 mM NaCl, 0.2% NP-40) at 4°C; both purified
[3] = biological target: purified recombinant GST-PKCθ (UniProt Q04759); assay: in vitro binding assay; purified PKCθ and purified AhR (HA-AhR eluted with HA peptide from transfected HEK293T cells); both purified
CFP-tagged PKCθ = CFP-tagged PKCθ (UniProt Q04759); assay: FRET or BRET; FRET in live PKCθ/AhR-cotransfected Jurkat T cells; excitation 430 nm, emission 530 nm; EnVision 2104 reader
[4] = biological target: protein kinase Cθ (PKCθ), endogenous in murine T cells (mouse (endogenous in murine T cells)) (UniProt Q02111); assay: co-IP; endogenous proteins; lysates of murine primary splenic T cells (WT and Lck-GLK Tg without stimulation; or stimulated with anti-CD3 antibodies plus streptavidin, 3 μg each per ml); 0.5 to 1 mg lysate, 1 μg antibody, protein A/G Sepharose, 4°C; washed with lysis buffer (125 mM NaCl, 0.2% NP-40)
[5] = biological target: retinoic-acid-receptor-related orphan nuclear receptor γt (RORγt), endogenous in murine T cells (mouse (endogenous in murine T cells)) (UniProt P51450); assay: as above
[6] = biological target: Ser489-phosphorylated RORγt, endogenous in murine T cells (mouse (endogenous in murine T cells)) (UniProt P51450); assay: proximity ligation; in situ PLA (Duolink In Situ Red) with antibodies to the endogenous proteins; murine peripheral blood or primary T cells of WT, Lck-GLK Tg and Lck-GLK;PKCθ-/- mice, or T cells stimulated with anti-CD3 antibodies plus streptavidin; signal at <40 nm
[7] = biological target: protein kinase Cθ (PKCθ), endogenous in murine T cells (mouse (endogenous in murine T cells)) (UniProt Q02111); assay: as above
[8] = biological target: retinoic-acid-receptor-related orphan nuclear receptor γt (RORγt), endogenous in murine T cells (mouse (endogenous in murine T cells)) (UniProt P51450); assay: as above
[9] = biological target: retinoic-acid-receptor-related orphan nuclear receptor γt (RORγt), endogenous in murine T cells (mouse (endogenous in murine T cells)) (UniProt P51450); assay: condition: only T cells with IKKβ conditional knock-out (IKKβ^f/f;CD4-Cre), stimulated with anti-CD3; proximity ligation; in situ PLA for endogenous AhR and RORγt in primary T cells of IKKβ^f/f;CD4-Cre mice (IKKβ conditional knock-out) stimulated with anti-CD3 antibodies plus streptavidin
[10] = biological target: retinoic-acid-receptor-related orphan nuclear receptor γt (RORγt), endogenous in murine T cells (mouse (endogenous in murine T cells)) (UniProt P51450); assay: condition: only T cells with IKKβ conditional knock-out (Lck-GLK;IKKβ^f/f;CD4-Cre); proximity ligation; in situ PLA for endogenous AhR and RORγt in peripheral blood T cells of Lck-GLK;IKKβ^f/f;CD4-Cre mice (IKKβ conditional knock-out)

Substance: Flag-tagged AhR (from UniProt P35869 11-848)
binding (Myc-tagged PKCθ): binds

Substance: Flag-tagged RORγt-S489A mutant (cells cotransfected with IKKβ) (from UniProt P51450-2 1-495)
binding (HA-tagged AhR): no binding

Substance: YFP-tagged AhR (from UniProt P35869 11-848)
binding (CFP-tagged PKCθ): binds

Substance: aryl hydrocarbon receptor (AhR), endogenous in murine T cells (from UniProt P30561 10-848)
binding [4]: binds
binding [5]: binds
binding [6]: binds
binding [7]: binds
binding [8]: binds
binding [9]: no binding
binding [10]: no binding

Second part, the substance after the results:

binding (PKCθ of the ALPHA assay): binds
binding [1]: no binding
Substance: AhR of the ALPHA assay (from UniProt P35869 11-848)

binding (HA-tagged AhR): binds
binding [2]: binds
Substance: Flag-tagged RORγt from cells cotransfected with IKKβ (phosphorylated at Ser489) (from UniProt P51450-2 1-495)

binding [3]: binds
Substance: HA-tagged AhR (from UniProt P35869 11-848)
